Source: the supplement of paper PMC11348887
Structures can show the parent of a compound that is named as a salt. The list shows a part of the results. No stated cut-off is given here; in the data, active = -2 or less and inactive = the rest. Most values come without repeats; read them as rough.

System: hPSC-derived cortical neurons (WA09)
Test: nuclei number (viability) z-score; higher = more surviving cells
Conditions: 5 µM; treatment: days 7-14 after plating, readout day 21
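Further: nuclei counted from DAPI counterstain by automated high-content image analysis, four fields per well at ×20 in 384-well plates, with sequential b-score then z-score normalization.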

Row | Structure (SMILES) | nuclei number (z-score)
1 | O=C1Cc2c([nH]c3ccc(Br)cc23)-c2ccccc2N1 [Kenpaullone] | inactive: -0.0269
2 | CCc1c(O)cc(O)c(C(=O)c2ccc(OCCN3CCOCC3)c(OC)c2)c1CC(=O)N(CCOC)CCOC | active: -7.38
3 | CNCCCC12CCC(c3ccccc31)c1ccccc12 [Maprotiline HCl] | inactive: -0.615
4 | OC(c1cc(C(F)(F)F)nc2c(C(F)(F)F)cccc12)C1CCCCN1 (stereo not drawn) [Mefloquine HCl] | active: -3.73
5 | COc1ccc2c(c1)c(CC(=O)N1CCOCC1)c(C)n2C(=O)c1ccc(Cl)cc1 | inactive: 0.801
6 | Cc1ccc(-n2sc(=O)n(Cc3ccc(F)cc3)c2=O)cc1 | inactive: 2.94
7 | Cc1cc(Cl)ccc1OCCCC(=O)NO [Droxinostat] | inactive: -0.545
8 | O=C(NCCN1CCOCC1)c1ccc(Cl)cc1 | inactive: 0.196
9 | C/C(=C\C(=O)Nc1ccccc1C(=O)O)c1ccc2ccccc2c1 | inactive: 0.0308
10 | O=C(c1ccc(/C=C/c2n[nH]c3ccccc23)cc1)N1CCNCC1 | inactive: -0.154
11 | C[C@H](Cc1cc2c(c(C(N)=O)c1)N(CCCO)CC2)NCCOc1ccccc1OCC(F)(F)F [Silodosin] | inactive: -0.161
12 | CN(C)CCOc1ccc(-c2nc(-c3ccncc3)c(-c3ccc4c(c3)CC/C4=N\O)[nH]2)cc1 | active: -8.72
13 | CCCC(CCC)C(=O)O[C@H]1C[C@H]2CC[C@@H](C1)[N+]2(C)C [Anisotropine Methylbromide] | inactive: -1.18
14 | Nc1ccc(C(=O)O)cc1 [4-Aminobenzoic acid] | inactive: 0.967
15 | O=C(O)C1=CO[C@@H](O[C@@H]2O[C@H](CO)[C@@H](O)[C@H](O)[C@H]2O)[C@@H]2C(CO)=CC[C@H]12 [Geniposidic acid] | inactive: 1.04
16 | CS(=O)(=O)c1ccc(-c2cnc(N)c(C(=O)Nc3ccccc3)n2)cc1 | inactive: 0.496
17 | NS(=O)(=O)c1cc(Cl)c(Cl)c(S(N)(=O)=O)c1 [Dichlorphenamide] | inactive: 0.184
18 | O=C(Oc1ccccc1C(=O)O)c1ccccc1O [Sasapyrine] | inactive: 1.01
19 | COc1c(C)c2c(c(O)c1C/C=C(\C)CCC(=O)O)C(=O)OC2 [Mycophenolic acid] | inactive: 0.584
20 | CC1(C)CC[C@]2(C(=O)O)CC[C@]3(C)C(=CC[C@@H]4[C@@]5(C)CC[C@H](O)C(C)(C)[C@@H]5CC[C@]43C)[C@@H]2C1 [Oleanolic Acid] | inactive: -0.196
21 | O=C(O)CCCCC(CCSCc1ccccc1)SCc1ccccc1 (stereo not drawn) | inactive: 0.455
22 | O=c1c(-c2ccc(O)cc2)coc2cc(O)ccc12 [Daidzein] | inactive: 1.28
23 | C[C@H]1O[C@@H](n2cc(F)c(=O)[nH]c2=O)[C@H](O)[C@@H]1O [Doxifluridine] | inactive: 6.17
24 | CC(C)(C)c1nc(-c2cccc(NS(=O)(=O)c3c(F)cccc3F)c2F)c(-c2ccnc(N)n2)s1 | inactive: 0.471
25 | COc1cccc(Nc2c(C(N)=O)cnc3c(C)cc(S(=O)(=O)c4cccc(C(=O)N(C)C)c4)cc23)c1 | inactive: -1.05

Row | Structure (SMILES) | nuclei number (z-score)
26 | Nc1c(CC(=O)O)cccc1C(=O)c1ccc(Br)cc1 [Bromfenac Sodium] | inactive: 0.274
27 | COc1cc2c(cc1OCCCN1CCCC1)N=C(N)C21CCC1 | inactive: 0.768
28 | CC(=O)CCCCn1c(=O)c2c(ncn2C)n(C)c1=O [Pentoxifylline] | inactive: -0.628
29 | CC(C)(C)c1ccc(C(=O)CCCN2CCC(OC(c3ccccc3)c3ccccc3)CC2)cc1 [Ebastine] | active: -5.25
30 | O=c1ccn([C@@H]2O[C@H](CO)[C@@H](O)[C@H]2O)c(=O)[nH]1 [Uridine] | inactive: -0.943
31 | CC(C)n1c(/C=C/C(O)CC(O)CC(=O)O)c(-c2ccc(F)cc2)c2ccccc21 (stereo not drawn) [Fluvastatin Sodium] | inactive: -0.564
32 | CCCCNc1cc(C(=O)O)cc(S(N)(=O)=O)c1Oc1ccccc1 [Bumetanide] | inactive: 0.0772
33 | C[C@H](Cn1cnc2c(N)ncnc21)OCP(=O)(O)O [Tenofovir] | inactive: 0.953
34 | COC(=O)Nc1ccc(-c2nc(N3CCOCC3)c3cnn(C4CCN(C(=O)OC)CC4)c3n2)cc1 | inactive: -0.264
35 | N.N.O=C([O-])C[O-].[Pt+2] [Nedaplatin] | inactive: -1.62
36 | COC(=O)N[C@H](C(=O)N[C@@H](Cc1ccccc1)[C@@H](O)CN(Cc1ccc(-c2ccccn2)cc1)NC(=O)[C@@H](NC(=O)OC)C(C)(C)C)C(C)(C)C [Atazanavir] | inactive: -0.12
37 | COC(=O)N[C@H](C(=O)N[C@@H](Cc1ccccc1)[C@@H](O)CN(Cc1ccc(-c2ccccn2)cc1)NC(=O)[C@@H](NC(=O)OC)C(C)(C)C)C(C)(C)C [Atazanavir Sulfate] | inactive: 0.561
38 | CNC[C@H](O)[C@@H](O)[C@H](O)[C@H](O)CO [Meglumine] | inactive: 0.211
39 | NCCCC(O)(P(=O)(O)O)P(=O)(O)O [Alendronate sodium trihydrate] | inactive: -0.125
40 | NC(=O)OCC(COC(N)=O)c1ccccc1 [Felbamate] | inactive: 0.0224
41 | CCC[S+]([O-])c1ccc2[nH]c(NC(=O)OC)nc2c1 (stereo not drawn) [Albendazole Oxide] | inactive: 1.03
42 | Cc1ccnc(NS(=O)(=O)c2ccc(N)cc2)n1 [Sulfamerazine] | inactive: -0.527
43 | OC(CC1c2ccccc2-c2cncn21)C1CCCCC1 (stereo not drawn) | inactive: 0.0962
44 | COc1ccc(C[C@H](N)C(=O)N[C@H]2[C@@H](O)[C@H](n3cnc4c(N(C)C)ncnc43)O[C@@H]2CO)cc1 [Puromycin 2HCl] | active: -7.97
45 | [O-][n+]1cccc(CO)c1 [Mepiroxol] | inactive: 0.542
46 | CC(=O)O[C@H]1C[C@@]2(C)[C@@H](C[C@@H](O)[C@H]3[C@@]4(C)CC[C@@H](O)[C@@H](C)[C@@H]4CC[C@@]32C)/C1=C(\CCC=C(C)C)C(=O)O [Fusidate Sodium] | inactive: 0.106
47 | O=C(O)Cc1cccc(OCCCN(Cc2cccc(C(F)(F)F)c2Cl)CC(c2ccccc2)c2ccccc2)c1 | inactive: -0.375
48 | CC(=O)N[C@@H](CS)C(=O)O [Acetylcysteine] | inactive: -0.805
49 | C[C@]1(c2nc3c(C(N)=O)cccc3[nH]2)CCCN1 [Veliparib (ABT-888)] | inactive: 0.732
50 | CN1CCN(c2ccc(Nc3ncc4cc(C#N)c(=O)n(C5CCCC5)c4n3)cc2)CC1 | inactive: -1.57

Row | Structure (SMILES) | nuclei number (z-score)
51 | O=c1cc(-c2ccccc2)oc2cc(O)c(O)c(O)c12 [Baicalein] | inactive: -0.0599
52 | COc1cc(C2Oc3cc([C@H]4Oc5cc(O)cc(O)c5C(=O)[C@@H]4O)ccc3OC2CO)ccc1O (stereo partly drawn) [Silymarin] | inactive: 5.88
53 | COc1cc(C2Oc3cc([C@H]4Oc5cc(O)cc(O)c5C(=O)[C@@H]4O)ccc3OC2CO)ccc1O (stereo partly drawn) [Silibinin] | inactive: 0.585
54 | Clc1ccc(C(Cn2ccnc2)OCc2ccc(Sc3ccccc3)cc2)c(Cl)c1 (stereo not drawn) [Fenticonazole Nitrate] | active: -2.48
55 | CC[C@H](C)C(=O)O[C@H]1C[C@@H](C)C=C2C=C[C@H](C)[C@H](CC[C@@H]3C[C@@H](O)CC(=O)O3)[C@H]21 [Lovastatin] | inactive: -0.859
56 | CCN(CC)CCOC(=O)c1ccc(N)cc1 [Procaine] | inactive: -0.452
57 | CCN(CC)CCOC(=O)c1ccc(N)cc1 [Procaine HCl] | inactive: -0.013
58 | O=C1CCC[C@@H]2[C@H]3CCC[N+]4([O-])CCC[C@@H](CN12)[C@@H]34 (stereo partly drawn) [Oxymatrine] | inactive: 1.44
59 | COc1cccc2cc(-c3nc([C@H]4CC[C@H](C(=O)O)CC4)n4ncnc(N)c34)[nH]c12 | inactive: -0.31
60 | CC1=C(C(=O)O)N2C(=O)[C@@H](NC(=O)[C@H](N)C3=CCC=CC3)[C@H]2SC1 [Cefradine] | inactive: 0.95
61 | N[C@@H](CCC(=O)N[C@@H](CS)C(=O)NCC(=O)O)C(=O)O [Glutathione] | inactive: 2.18
62 | Cc1ccc(NCCCc2ccccc2)c(N)c1 | inactive: -0.165
63 | C=CC(=O)Nc1cc(Nc2nccc(-c3cn(C)c4ccccc34)n2)c(OC)cc1N(C)CCN(C)C | active: -4.68
64 | C#Cc1cccc(Nc2ncnc3cc4c(cc23)OCCOCCOCCO4)c1 [Icotinib] | inactive: 1.94
65 | C=CC(=O)Nc1cc(Nc2nccc(-c3c[nH]c4ccccc34)n2)c(OC)cc1N(C)CCN(C)C | active: -3.75
66 | Cc1ncc(CO)c(CO)c1O [Pyridoxine HCl] | inactive: 0.218
67 | O=C(O)c1ccc(-c2c[nH]c3ncc(-c4ccccc4)cc23)cc1C1CCCC1 | inactive: 0.264
68 | CC1(C)[C@H](C(=O)O)N2C(=O)C[C@H]2S1(=O)=O [Sulbactam] | inactive: -0.206
69 | CC1(C)[C@H](C(=O)O)N2C(=O)C[C@H]2S1(=O)=O [Sulbactam sodium] | inactive: 0.034
70 | N=C(N)NS(=O)(=O)c1ccc(N)cc1 [Sulfaguanidine] | inactive: 0.0335
71 | COc1ccc2ccc(=O)oc2c1CC=C(C)C [Osthole] | inactive: -0.131
72 | O=C(Nc1nc2cccc(-c3ccc(CN4CCS(=O)(=O)CC4)cc3)n2n1)C1CC1 [Filgotinib (GLPG0634)] | inactive: 1.65
73 | CNS(=O)(=O)CCc1ccc2[nH]cc(C3CCN(C)CC3)c2c1 [Naratriptan] | inactive: -1.02
